The other results are listed elsewhere or left out.
Each molecule was assayed on HSkMC (human skeletal muscle cells) (assay: cytotoxicity call (relative viability < 0.9)). Settings: 10 µM.

SMILES | cytotoxicity call
O=C(C[C@H]1C[C@@H]2c3cc(NC(=O)Nc4ccc(C(F)(F)F)cc4)ccc3O[C@@H]2[C@@H](CO)O1)NCCc1ccccc1 | inactive
CN(CC(=O)Nc1ccc(F)cc1F)S(=O)(=O)c1ccc2c(c1)c(=O)n(C)c(=O)n2C | inactive
O=C(N[C@@H](c1ccc(-c2ccccc2)cc1)c1cnccn1)C1CCN(CCOc2ccc(F)cc2)CC1 | inactive
CCCC#Cc1ccc2c(c1)O[C@@H](CN(C)C(=O)c1cnccn1)[C@H](C)CN([C@@H](C)CO)S2(=O)=O | inactive
CC(=O)n1cc([C@@H]2C=C(C(=O)N3CCCCCCC3)O[C@H](OCc3ccc(CO)cc3)C2)c2ccccc21 | inactive
COc1ccc(CN(C)C[C@@H]2Oc3c(NC(=O)CCCCCC(=O)Nc4ccccc4N)cccc3C(=O)N([C@H](C)CO)C[C@H]2C)cc1 | inactive
C[C@@H]1CN([C@H](C)CO)C(=O)Cc2cc(NC(=O)Nc3ccc(F)cc3)ccc2O[C@@H]1CN(C)C(=O)Nc1cccc2ccccc12 | inactive
Cn1c(=O)c2[nH]cnc2n(C)c1=O.NCCN | inactive
C[C@@H]1CCCCO[C@H](CN(C)S(=O)(=O)c2ccccc2)[C@H](C)CN([C@H](C)CO)C(=O)c2cc(NC(=O)C3CCCCC3)ccc2O1 | inactive
Cc1ccccc1S(=O)(=O)N1C[C@H](O)COC[C@@H]2O[C@@H](CC(=O)N3CCN(C)CC3)CC[C@H]21 | inactive
C[C@@H]1CN([C@H](C)CO)C(=O)c2cccc(NC(=O)c3ccc(-c4nccs4)cc3)c2O[C@@H]1CN(C)C(=O)Nc1ccc(F)cc1 | inactive
COc1ccc(S(=O)(=O)Nc2cccc3c2O[C@H](CN(C)S(=O)(=O)c2ccc(C)cc2)[C@H](C)CN([C@@H](C)CO)C3=O)cc1 | inactive
O=C(C[C@H]1CC[C@@H](NC(=O)CN2CCOCC2)[C@@H](CO)O1)NCCc1ccncc1 | inactive
COc1ccc2c(c1)OCC(=Cc1ccc(OC)c(O)c1)C2=O | inactive
Cc1ccc(S(=O)(=O)Nc2ccc3c(c2)C(=O)N([C@H](C)CO)C[C@H](C)[C@H](CN(C)S(=O)(=O)c2ccccc2)O3)cc1 | inactive
O=C1CC(c2ccc(O)cc2)Oc2cc(O)cc(O)c21 (stereo not given) | inactive
COCC#Cc1cnc2c(c1)C(=O)N([C@H](C)CO)C[C@@H](C)[C@H](CN(C)C(=O)CN1CCOCC1)O2 | inactive
C[C@H](CO)N1C[C@H](C)[C@H](CN(C)S(=O)(=O)c2ccc(F)cc2)Oc2ccc(NS(=O)(=O)c3cccs3)cc2C1=O | inactive
C=CC[C@H](CC(=O)NCCO)C(=O)N[C@@H](COC(=O)[C@@H](CC=C)CC(=O)OC(C)(C)C)Cc1c[nH]c2ccccc12 | inactive
COc1ccc(S(=O)(=O)N[C@@H]2CC[C@H](CC(=O)N3CCC(Cc4ccccc4)CC3)O[C@H]2CO)cc1 | inactive

SMILES | cytotoxicity call
N=C(N)NCCNS(=O)(=O)c1cccc2cnccc12 | inactive
Cc1cccc(CO)n1 | inactive
CCOc1ccc(S(N)(=O)=O)cc1 | inactive
C[C@@H]1CCCCO[C@@H](CN(C)S(=O)(=O)c2ccc(Cl)cc2)[C@@H](C)CN([C@H](C)CO)C(=O)c2cc(NC(=O)Nc3ccc4c(c3)OCO4)ccc2O1 | inactive
C[C@H](CO)N1C[C@H](C)[C@@H](CN(C)S(=O)(=O)c2ccccc2)OCCCC[C@H](C)Oc2ccc(NC(=O)Nc3cccc4ccccc34)cc2C1=O | inactive
C[C@@H]1CN([C@@H](C)CO)C(=O)c2cc(NS(=O)(=O)c3ccc(F)cc3)ccc2O[C@H]1CN(C)S(=O)(=O)c1cccs1 | inactive
Cc1ccc(S(=O)(=O)N[C@@H]2CC[C@H](CCNC(=O)CN3CCOCC3)O[C@H]2CO)cc1 | inactive
O=C(C[C@@H]1CC[C@@H]2[C@H](COC[C@@H](O)CN2C(=O)Nc2cccc(Cl)c2)O1)NCc1ccccc1F | inactive
C[C@@H]1CN([C@@H](C)CO)C(=O)c2cccc(NC(=O)C3CC3)c2O[C@@H]1CN(C)S(=O)(=O)c1ccc(Cl)cc1 | inactive
C[C@@H]1CN([C@@H](C)CO)C(=O)Cc2cc(NC(=O)Cn3cnnn3)ccc2O[C@@H]1CN(C)Cc1ccc(Cl)c(Cl)c1 | inactive
C[C@H](CO)N1C[C@H](C)[C@H](CN(C)S(=O)(=O)c2ccccc2)Oc2ccc(NS(=O)(=O)c3ccccc3)cc2CC1=O | inactive
CO[C@H]1O[C@H](CO)[C@@H](OC(=O)Nc2ccc(Oc3ccccc3)cc2)[C@H](OC(=O)Nc2ccccc2-c2ccccc2)[C@@H]1OC(=O)Nc1ccccc1-c1ccccc1 | inactive
C[C@@H]1CCCCO[C@@H](CN(C)C(=O)Nc2ccc(F)cc2)[C@H](C)CN([C@@H](C)CO)C(=O)c2cc(NS(=O)(=O)c3ccccc3)ccc2O1 | inactive
CN(C)c1cc[n+](C(=O)N2CCOCC2)cc1 | inactive
COc1ccc(-c2cnc3c(c2)C(=O)N([C@@H](C)CO)C[C@@H](C)[C@@H](CN(C)S(=O)(=O)c2ccc(OC)cc2)O3)cc1 | inactive
C[C@@H]1CN([C@@H](C)CO)C(=O)c2cc(NC(=O)Cn3cnnn3)ccc2O[C@H]1CN(C)C(=O)Nc1ccc(F)cc1 | inactive
C[C@@H]1CN([C@H](C)CO)S(=O)(=O)c2ccc(C#C[C@@H](C)O)cc2O[C@@H]1CN(C)C | inactive
COc1ccc(S(=O)(=O)N(C)C[C@@H]2Oc3ccc(NC(=O)c4ccncc4)cc3CC(=O)N([C@H](C)CO)C[C@H]2C)cc1 | inactive
C[C@H](CO)N1C[C@H](C)[C@H](CN(C)Cc2ccc(Oc3ccccc3)cc2)Oc2ccc(NS(=O)(=O)c3ccc(Cl)cc3)cc2C1=O | inactive
Cc1noc(C)c1NC(=O)N(C)C[C@@H]1Oc2ccc(NS(=O)(=O)c3ccccc3)cc2CC(=O)N([C@@H](C)CO)C[C@@H]1C | inactive
